± gives the standard deviation. In all, about 5,500 sequences were measured (“pre-steady-state target cleavage rate”: median about 0.1, highest 2% from about 0.64 on). Only a part is listed here, and it is no random draw.
system: MIWI (PIWIL1) piRISC loaded with piRNA #2 (30 nt); assay: pre-steady-state target cleavage rate (min^-1); MIWI and MILI are mouse PIWI proteins and EfPiwi is from a freshwater sponge; tags in brackets are library labels; higher = faster piRNA-guided slicing of the target; settings: guide: piRNA #2 5'p-UUAGGUAACCCAGUAGAUCCAGAGGAAUUC; auxiliary factor: 500 nM mouse GTSF1
Experimental: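 Cleave-'n-Seq: a library of target RNAs (target site embedded in constant flanks, ACAGCATTCCGCGTTAGTGATATCCG... 5' flank; DNA-blocked outside the site) at 0.1 nM was incubated with 1 nM active mouse MILI or MIWI piRISC (synthetic 5'-monophosphorylated piRNA guide) with or without 500 nM mouse GTSF1 at 33 °C for 1 min to 16 h. Uncleaved targets were sequenced and normalised to non-target controls, and the pooled three trials were fitted to a burst-and-steady-state model to give the pre-steady-state cleavage rate (min^-1; k3 is constrained to at most 1e-4). Sequence is the target site only; target names encode pairing extent (gX:gY) and contiguous / 1-mismatch / 2-mismatch / bulge geometry. Fits with R² ≤ 0 are excluded.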

In order of falling “pre-steady-state target cleavage rate” value:
1. CAAUUCCUCUCGAUCUACUGGGUUUCCUAA  0.631 ± 0.054
2. CAAUUCCUCUGGAUCUACUGCGUUACGUAA  0.573 ± 0.096
3. CUUAUCCUCUGGAUCUACUGGGUUACACUAA  0.551 ± 0.047
4. CUUAUCCUAUGGAUCUACUGGGUUACCUAA  0.524 ± 0.05
5. CUUUUCCAGUGGAUCUACUGGGUUACCUAA  0.521 ± 0.047
6. GAAUUCCUCAGGAUCUACUGCGUUACCUAA  0.518 ± 0.048
7. CAAUUCGUCUGGAUCUACUGGGUUACGUAA  0.482 ± 0.074
8. CUUAUCCUCUGGAUGUACUGGGUUACCUAA  0.459 ± 0.051
9. CUUUUCCUCUCGAUCUACUGGGAUACCUAA  0.435 ± 0.028
10. GAAUUCCUCAGGAUGUACUGGGUUACCUAA  0.435 ± 0.052
11. CUAUUCCUCUGGAUGUACUGGGUUACCUUA  0.403 ± 0.043
12. GAAUUCCUCUGAGAUCUACUGGGUUACCUAA  0.381 ± 0.046
13. CUUAACCUCUGGAACUACUGGGUUACGUAA  0.373 ± 0.024
14. GAAUUCCUCUGGAUCUACUGGGUUGACCUAA  0.364 ± 0.038
15. CAAUUCCUCUGGAUCUACUGGGUGUACCUAA  0.362 ± 0.05
16. CUUAUCCUCUCGAUCUACAGGGUUACCUAA  0.354 ± 0.024
17. GAAUUCCUCUGGAUCAACUGGGUUACCUAA  0.333 ± 0.051
18. CUUAACCACUGGAUCUACUGGGUUACCUUA  0.32 ± 0.043
19. CUUUUCCUCUGGAUGUACUGGGUUUCCUAA  0.316 ± 0.068
20. CUUAUCCUCGGAUCUACUGGGUUACCUAA  0.313 ± 0.06
21. CUUAACCUUUGGAUCUACUGGGUUACCUAA  0.301 ± 0.025
22. CAAUUCCACUGGAUCUACUGGGUAACCUAA  0.293 ± 0.061
23. CAAUUCCUCUGGAACUACUGGGUUAGCUAA  0.293 ± 0.05
24. CUUUUCCUCUGGUUCUUCUGGGUUACCUAA  0.284 ± 0.03
25. CUUUUCCUCUGGAUUCUACUGGGUUACCUAA  0.283 ± 0.043
26. CUUUUCCUCUGGAUCUACUGGGUUACGAAA  0.264 ± 0.048
27. CUUAACCUCUGGAUCUACUGGGUUACCAAA  0.257 ± 0.038
28. CAAUACCUCUGGAUCUACUGGGAUACCUAA  0.248 ± 0.031
29. CUAUUCCUCUGGAUCGACUGGGUUACCUAA  0.239 ± 0.032
30. CUUAAGCACUGGUUCUACUGGGUUACCUAA  0.238 ± 0.021
31. CUUAAGGUCAUGGAUCUACUGGGUUACCUAA  0.237 ± 0.031
32. CAAUUCCUCUGGAUCUACUGGGAUACCAAA  0.226 ± 0.066
33. GAAUUCCUGUGGAUCUACUGGGUUUCCUAA  0.217 ± 0.04
34. CAAUUCCACUGGAUCUACAGGGUUACCUAA  0.208 ± 0.031
35. CUUUUCCUCUGGUCUACUGGGUUACCUAA  0.205 ± 0.057
36. CUUAAGGAGUGGAUCUACUGAGUUACCUAA  0.188 ± 0.049
37. CUUAAGCUCCUGGAUCUACUGGGUUACCUAA  0.181 ± 0.021
38. GUAUUCCUGUGGAUCUACUGGGUUACCUAA  0.168 ± 0.045
39. CUUAAGCACUGGAUCUACUGGGAUACCUAA  0.167 ± 0.018
40. CUUAAGCUCUCGAUCUAGUGGGUUACCUAA  0.165 ± 0.014
41. CUAUUCCUCUGGAUCUACAGCGUUACCUAA  0.138 ± 0.024
42. CUUUUCGUCUGGAUCUUCUGGGUUACCUAA  0.134 ± 0.023
43. GAAUUCCUCUGGAUCUACUGGUUACCUAA  0.119 ± 0.031
44. CUUAAGCUCUGGAUCUACUGGGUUUACCUAA  0.116 ± 0.017
45. CUUUUCCUCUGGAUCUACAGGGUUAGCUAA  0.113 ± 0.02
46. CAUUUCCUCUGGAUCUACUCGGUUACCUAA  0.111 ± 0.023
47. CUAUUCCUCUGGAUCUACUCGGUUACCUAA  0.104 ± 0.019
48. CUAUUCGUCUGGAUCUACUGGCUUACCUAA  0.0985 ± 0.029
49. CUUAAGGACGUGGAUCUACUGGGUUACCUAA  0.093 ± 0.042
50. CUUAAGGUCUGGAUCUACUGGGUAACGUAA  0.0836 ± 0.016
51. CUUAAGCUCAGGAUCUACAGGGUUACCUAA  0.081 ± 0.014
52. CUUAAGCUGUGGAUCUACUGGGAUACCUAA  0.0791 ± 0.029
53. CUUAAGCUCUGGAUCUACUGGGUUACCUAU [g2:g24:cont:t1U]  0.0709 ± 0.014
54. CAAUACCUCUGGAUCUACUCGGUUACCUAA  0.0684 ± 0.016
55. CUUAAGGACUGGAUCUACAGGGUUACCAAA  0.0681 ± 0.018
56. CUUAUCCUCUGGAUCUACUCGGUUACCUUA  0.0652 ± 0.02
57. GAAUUCGUCUGGAUCUAGUGGGUUACCUAA  0.0625 ± 0.014
58. CUUAAGGACUGCAUCUACUGGGUUACGUAA  0.0548 ± 0.032
59. CUUUUCCUCUGGAUCUACGGGUUACCUAA  0.0476 ± 0.0059
60. CUUAAGCUCUGGAUCUACUGGCUUACCUUA  0.0348 ± 0.013
61. CUUAAGCUCUGGAUCAACUGGCUUACCUAA  0.0298 ± 0.0089
62. CUUAACCUCUGGAUCUACUCGGUUUCCUAA  0.023 ± 0.0077
63. CUUAAGGAGUGGAUCUACUCGGUUACGUAA  0.0153 ± 0.011
64. CUUAAGGUCUGGAUCUUCUGGCUUACCUAA  0.015 ± 0.012
65. CUUAAGGAGAGGAUCCACUGGGUUACCUAA  0.0131 ± 0.0026
66. CAAUUCCUCUGGAUGAUCUGGGUUACCUAA  0.0124 ± 0.0051
67. CUUAAGGAGUGAAUCUACUGGGUUACCUAA  0.0123 ± 0.0035
68. CUUAUCCUCUGGAUCUACUGGCAUACCUAA  0.00689 ± 0.0037
69. CUUAAGGUGUCGAUCUACUGGGUUACCUAA  0.00494 ± 0.0027
70. CUUAAGGAGUGGAUCUACUGGGAUACCUUA  0.00465 ± 0.0034
71. CUUAAGGUCUGGAUCAUACUGGGUUACCUAA  0.00457 ± 0.0032
72. CUUUUCCUCUGGAUCUACUGGCAAACCUAA  0.00392 ± 0.0027

— the supplement of paper PMC10338343
